2 molecules from patent publication US20160194399A1 (CYTOMX THERAPEUTICS, published 2016) can be followed below.

This experiment concerns the target T1, Recombinant cynomolgus (Macaca fascicularis) CD3ε with a polyhistidine affinity tag at the C-terminus (cynomolgus (Macaca fascicularis), UniProt Q95LI5 22-117).
T1 construct: Bought protein; also called cynomolgus CD3ε; cyno CD3ε
T1 sequence (looked up): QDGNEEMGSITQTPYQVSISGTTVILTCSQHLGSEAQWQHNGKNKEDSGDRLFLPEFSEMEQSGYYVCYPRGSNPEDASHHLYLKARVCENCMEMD
Nature of the experiment: ELISA, cynomolgus CD3ε-His coated at 0.1 µg/ml, anti-human Fc-HRP. (In an ELISA, binding on a coated surface is turned into a signal by an enzyme label.)

B1: Antibody SP34scFv(LvHv)-Fc fusion (Fc fusion)
chain: QAVVTQESALTTSPGETVTLTCRSSTGAVTTSNYANWVQEKPDHLFTGLIGGTNKRAPGVPARFSGSLIGDKAALTITGAQTEDEAIYFCALWYSNLWVFGGGTKLTVLGGGGSGGGGSGGGGSEVQLVESGGGLVQPKGSLKLSCAASGFTFNTYAMNWVRQAPGKGLEWVARIRSKYNNYATYYADSVKDRFTISRDDSQSILYLQMNNLKTEDTAMYYCVRHGNFGNSYVSWFAYWGQGTLVTVSAGGSLD[human IgG1 Fc with C220S (EU numbers) skipped]
notes: SP34 scFv (Lv-linker-Hv) fused to a human IgG1 Fc; also called SP34 LvHv scFv Fc; SP34 LvHv
Take B1: the binding result was “binds”.

B2: Antibody SP34scFv(HvLv)-Fc fusion (Fc fusion)
chain: EVQLVESGGGLVQPKGSLKLSCAASGFTFNTYAMNWVRQAPGKGLEWVARIRSKYNNYATYYADSVKDRFTISRDDSQSILYLQMNNLKTEDTAMYYCVRHGNFGNSYVSWFAYWGQGTLVTVSAGGGGSGGGGSGGGGSQAVVTQESALTTSPGETVTLTCRSSTGAVTTSNYANWVQEKPDHLFTGLIGGTNKRAPGVPARFSGSLIGDKAALTITGAQTEDEAIYFCALWYSNLWVFGGGTKLTVLGGSLD[human IgG1 Fc with C220S (EU numbers) skipped]
notes: SP34 scFv (Hv-linker-Lv) fused to a human IgG1 Fc; unmasked; also called SP34 HvLv scFv Fc; SP34 HvLv Fc
Take B2: the binding result is listed as “binds”.
